Experimental data as given in PMC4336329 (PLoS ONE, 2015).
In all, about 310,000 compounds went through this assay and about 14,000 (4.5%) showed an effect of 50% or more. Effects have a minus sign here. Some of the results follow.

These compounds were tested against human ether-à-go-go-related gene (hERG) potassium channel (human, UniProt Q12809) (assay: primary screen, population patch clamp on CHO cells stably expressing hERG).
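Further: peak tail current of the secondary pulse compared with the same well before compound.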

Sequence of human ether-à-go-go-related gene (hERG) potassium channel (Q12809 whole entry, looked up): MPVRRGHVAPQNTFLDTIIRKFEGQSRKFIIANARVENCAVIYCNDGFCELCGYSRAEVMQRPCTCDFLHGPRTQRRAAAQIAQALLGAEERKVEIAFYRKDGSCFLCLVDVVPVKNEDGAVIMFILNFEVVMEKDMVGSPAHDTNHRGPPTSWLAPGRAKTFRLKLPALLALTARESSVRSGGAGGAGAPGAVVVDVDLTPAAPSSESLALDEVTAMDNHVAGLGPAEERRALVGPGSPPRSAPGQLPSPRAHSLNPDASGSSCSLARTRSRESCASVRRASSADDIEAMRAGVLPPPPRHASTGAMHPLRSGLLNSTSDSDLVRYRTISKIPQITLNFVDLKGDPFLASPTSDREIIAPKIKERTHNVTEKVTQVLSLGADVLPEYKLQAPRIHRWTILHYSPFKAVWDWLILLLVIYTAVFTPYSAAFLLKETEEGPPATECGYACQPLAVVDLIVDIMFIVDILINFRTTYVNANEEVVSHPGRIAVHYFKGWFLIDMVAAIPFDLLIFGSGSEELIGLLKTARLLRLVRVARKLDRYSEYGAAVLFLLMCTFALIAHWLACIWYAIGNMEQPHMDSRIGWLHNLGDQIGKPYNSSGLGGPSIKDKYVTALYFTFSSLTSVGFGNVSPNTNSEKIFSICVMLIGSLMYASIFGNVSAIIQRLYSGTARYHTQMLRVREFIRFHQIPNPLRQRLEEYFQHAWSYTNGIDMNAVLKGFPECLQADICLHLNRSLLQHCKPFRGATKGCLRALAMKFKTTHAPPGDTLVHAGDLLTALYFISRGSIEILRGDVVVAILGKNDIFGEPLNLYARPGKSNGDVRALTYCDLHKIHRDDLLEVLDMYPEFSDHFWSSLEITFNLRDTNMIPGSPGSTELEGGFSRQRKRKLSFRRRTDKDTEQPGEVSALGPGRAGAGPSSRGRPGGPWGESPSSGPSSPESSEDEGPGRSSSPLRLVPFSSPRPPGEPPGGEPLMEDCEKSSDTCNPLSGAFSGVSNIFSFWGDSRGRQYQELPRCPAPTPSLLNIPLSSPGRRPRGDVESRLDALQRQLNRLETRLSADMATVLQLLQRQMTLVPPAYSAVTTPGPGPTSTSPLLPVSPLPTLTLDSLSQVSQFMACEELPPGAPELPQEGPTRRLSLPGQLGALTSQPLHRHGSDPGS

Row | Compound | hERG current change (%, negative = inhibition) at 10uM
1 | Cc1nc([N+](=O)[O-])c(NCCO)n1Cc1ccccc1 | 8.23%
2 | COC(=O)c1cn(NC(=O)c2ccc(OC)c([N+](=O)[O-])c2)c(=O)c2ccccc12 | 8.34%
3 | Cc1ccccc1S(=O)(=O)c1c(C)cc(C)n(C)c1=O | 7.04%
4 | O=C(NC(C(=O)c1ccccc1)N1CCOCC1)c1cccs1 (stereo not drawn) | -21.1%
5 | COc1cc(CN2CCCCCC2)cc(OC)c1O | 8.88%
6 | CSc1ccccc1C(=O)Nc1cc2c(cc1C(=O)O)OCCCO2 | 18.2%
7 | O=C(COC(=O)CCC1CCCC1)Nc1ccc(F)cc1 | 19%
8 | NS(=O)(=O)c1ccc(CCNC(=O)c2ccc3nc4ccc(Cl)cc4c(=O)n3c2)cc1 | 10.4%
9 | CN(C)S(=O)(=O)c1ccc(C(=O)NCCSc2ccc(Br)cc2)cc1 | -32.3%
10 | CC(C)C[C@H]1CN=C(Nc2ccccc2)N1CCC1CCCCC1 | -61.5%
11 | COc1nc(-c2ccc(Cl)cc2Cl)nc2ccccc12 | 6.59%
12 | COc1ccc(CN2CCN(Cc3ccco3)CC2)c(OC)c1.O=C(O)C(=O)O | -46.4%
13 | CCN1C(=O)c2ccccc2S(=O)(=O)c2ccc(C(=O)N3CCOCC3)cc21 | 5.98%
14 | CCN1CCN(CC(=O)N2N=C(c3cccs3)CC2c2ccc(OC)c(OC)c2)C(=O)C1=O (stereo not drawn) | 7.51%
15 | Cc1c(C(=O)Nc2ccc(OCc3ccccc3)cc2)cccc1[N+](=O)[O-] | -0.125%
16 | C/C(=N\NC(=O)c1cc(C)nc2ccccc12)c1ccccn1 | 1.58%
17 | Cc1n[nH]c(=O)c2c(NC(=O)CSc3nc4ccccc4c(=O)n3C(C)C)oc(C)c12 | -27%
18 | CC(Oc1cc2oc(=O)c3c(c2cc1Cl)CCCC3)C(=O)NCCN1CCOCC1 (stereo not drawn) | 2.86%
19 | CC(C)(C)NC(=O)C(=O)N/N=C/c1cccs1 | -22.1%
20 | COC(=O)C1=C(Nc2ccc(OC)cc2)C=C(C)C(C(=O)OC)C1c1ccc(C)cc1 (stereo not drawn) | 18.9%
21 | Cc1oc(C(C)(C)C)cc1C(=O)Nc1ccc(N2CCOCC2)cc1 | 5.05%
22 | COC(=O)c1ccc2c(=O)[nH]c(COC(=O)c3c(-c4ccccc4Cl)noc3C)nc2c1 | -5.72%
23 | Cc1noc(C)c1S(=O)(=O)Nc1c(C)n(C)n(-c2ccccc2)c1=O | 24.7%
24 | CCOC(=O)c1c(C)nc(C)c(C(=O)OCC)c1-c1ccccc1 | -6.13%
